The labels stand for the following.
B1: CPEB3 Ribozyme (parent)
chain: UAACAGGGGGCCACAGCAGAAGCGUUCACGUCGCAGCCCCUGUCAGAUUCUGGUGAAUCUGCGAAUUCUGCUGUAUAUCUC

Read counts are not given, so values of variants with three or more changes are uncertain.

This data set covers variants of B1. Briefly: self-cleavage, relative activity (ratio to wild type); higher = more cleavage; in vitro, sequencing. Put shortly: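 Relative activity compares each variant's cleaved/total read fraction with that of the unmutated ribozyme. To get these fractions, barcoded CPEB3 ribozyme libraries from rounds of error-prone PCR were transcribed with T7 RNA polymerase for 5 hours at 37°C and then given 15 min of DNase I treatment before EDTA was added. The RNAs were reverse transcribed with template switching and sequenced on Illumina, and DNA sequencing linked barcodes to variants. A minimum of 5 reads applied, and three batches were averaged.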
As to A3G A13C A35G A57U, the self-cleavage was 1.03.

As to A2U G7A C23A U26G U51A G70A, the self-cleavage worked out at 0.15.

On to A2G U66C U80A, for which the self-cleavage came out at 0.36.

With A2U A5U G24A G36A U48A, the self-cleavage amounted to 0.06.

A3C A20U U51A U69A U78A: the self-cleavage is 0.26.

For the variant A3G A5U G9A U26A A28G U54C U80C, the self-cleavage stood at 0.06.

A2U G7U A20G C23U U58C: the self-cleavage turned out to be 0.08.

For A3C A15G G30A U31C A45U G53A U80A, the self-cleavage came to 0.11.

A2G U60A U80C: the self-cleavage is 0.45.

Turning to A3C A15G U25C U58C U67C A77U, the self-cleavage stood at 0.31.

On to A3C A13G G16U A21G G70A U72G, for which the self-cleavage turned out to be 0.08.

On to A3C A28G G42A A57G C68A, for which the self-cleavage worked out at 0.24.

As for A3C A20U C23U U72A A77G, the self-cleavage amounted to 0.22.

With A2U A3U U26C U41C U67G A75G A77G, the self-cleavage was 0.19.

Take A3G A13G C37A U69C: the self-cleavage is 0.16.

Take A2U U25C U74A: the self-cleavage was 0.52.

For the variant A3G A5G C23U U69C U78C, the self-cleavage was determined as 0.24.

As to A2U U25C U26C U54G, the self-cleavage worked out at 0.44.

With A3G A5C G16U A20G C23U U41C, the self-cleavage was determined as 0.12.

On to A3G A5U A18G, for which the self-cleavage came to 0.85.

For A2U C27U A28G A45C A64U A65G U67C, the self-cleavage came out at 0.06.

Regarding A2U C17A U43C U69C U72A, the self-cleavage is 0.09.

Turning to A3C A21G A28G A35G G61A U74A A77G, the self-cleavage was 0.97.

Turning to A2U A13G A15U G30U A65G A77U, the self-cleavage was 0.16.

Consider A3C U49C A57G, for which the self-cleavage turned out to be 0.34.

With A2U C59G U60C A65G, the self-cleavage is 0.12.

As to A2U A13G U25C C68U, the self-cleavage was determined as 0.12.

Turning to A3C U26C A28U G33A U60A U67A U69A, the self-cleavage is 0.07.

Take A2U C17A U26A A56G: the self-cleavage was 0.22.

On to A2U G9A A18U A56U G70C, for which the self-cleavage is 0.06.

For the variant A2G U66A U67C U72A, the self-cleavage is 0.11.

On to A3G A13G A15G A21G C34U, for which the self-cleavage amounted to 0.48.

As to A2U U26G G36A A45U A56U, the self-cleavage worked out at 0.06.

Turning to A2U A21C U72C U74A, the self-cleavage is 0.12.

For A2U G63C U74C, the self-cleavage was 0.89.

Take A3G A5C A13G U41A U48C A64U: the self-cleavage stood at 0.21.

As to A2U A20G U41A U58A G63A A64G U72C, the self-cleavage was determined as 0.12.

For the variant A3C U49C A77G, the self-cleavage amounted to 0.53.

As to A3C U25C A35G A47G U66C U67G, the self-cleavage is 0.05.

Take A3G A13G A18G C39A: the self-cleavage turned out to be 0.26.

On to A3C A15U A20G U54A A75G, for which the self-cleavage amounted to 0.65.

Consider A2U G7A A35G U48A G53U, for which the self-cleavage is 0.61.

As for A3C A20G A21G, the self-cleavage came out at 0.57.

As for A2U U54C U60A U67C U78C, the self-cleavage is 0.22.

On to A3C U26C C34A A35U A45G U51A G63U, for which the self-cleavage was determined as 0.15.

In the case of A3G A5G U25C U54A, the self-cleavage is 0.6.

Turning to A3C U26A A35G U43A U67A, the self-cleavage was 0.17.

As to A3C C14A A20G C27A C38U, the self-cleavage was determined as 0.36.

On to A3C U51C U54A U60A U72A, for which the self-cleavage is 0.99.

Turning to A3C A18U U31A A45G U80C, the self-cleavage is 0.69.

In the case of A3C C32U A35G, the self-cleavage was determined as 0.45.

As to A2U A5G U25C U41C U67C, the self-cleavage worked out at 0.29.

On to A2U U31G A64G U74C, for which the self-cleavage was 0.51.

With A2U A15G U26C A57G U72C, the self-cleavage came to 0.56.

For A3G A5G U25G U69C, the self-cleavage was 0.06.

As to A2U U26C U51C U78C, the self-cleavage came out at 0.45.

Take A3C C4U A5G G30U: the self-cleavage was 0.17.

On to A3C A5G G9A U25C A47G U80C, for which the self-cleavage stood at 0.1.

As for A3C A18G A47G U69A A75G U76A, the self-cleavage is 0.5.

Turning to A2U A18U C68A, the self-cleavage worked out at 0.16.

With A2U A15U U25C U26C A64G, the self-cleavage was 0.23.

In the case of A2U G8U A15U U25C A45G, the self-cleavage amounted to 0.28.

On to A3G A5G A21G U31A A45C A64C, for which the self-cleavage amounted to 0.07.

Take A3G A5U A21G U26C U67C: the self-cleavage amounted to 0.11.

Turning to A3C G9A A35G C38A G61U U69C, the self-cleavage is 0.31.

Consider A2G U60C U74C, for which the self-cleavage turned out to be 0.13.

A3C A21U U25C U41C A45G A56U: the self-cleavage worked out at 0.07.

Consider A2U A13G U26C U43A, for which the self-cleavage stood at 0.15.

In the case of A2U U49C U60C A65U, the self-cleavage was found to be 0.1.

With A2G U54A U74A, the self-cleavage was determined as 1.07.

Regarding A3C A28G A77G, the self-cleavage worked out at 0.85.

For A2U A21U A28U U41A U48C U51A A57U, the self-cleavage came out at 0.05.

For A2U U43C A45U A57U, the self-cleavage was 0.23.

In the case of A3C A5C G36A, the self-cleavage was determined as 0.33.

With A3G A13C G19C C39A C44A A47G A57G, the self-cleavage came out at 0.08.

For A2U G36U U41A A45G U60A U66C, the self-cleavage was found to be 0.06.

With A3C U51C A77G, the self-cleavage came out at 1.22.

A3G A5G C29U U41G: the self-cleavage was found to be 0.16.

On to A2U A3G U26C U31A, for which the self-cleavage turned out to be 0.18.

Regarding A3G A5G A64G, the self-cleavage was 0.52.

Take A2U G9U A35C U51C: the self-cleavage worked out at 0.07.

For A3G A5U U31C A45C U67C, the self-cleavage was determined as 0.24.

Take A3C A28G A47G U66A U69C U72A A77U: the self-cleavage stood at 0.11.

In the case of A3G A13G C23U G33A U43C U72C U76C, the self-cleavage amounted to 0.07.

The values are drawn from the RNAGym collection of RNA variant scans (doi:10.1093/nar/gkz1192).
